According to PubChem BioAssay AID1159614 (National Center for Advancing Translational Sciences (NCATS), 2016):
The campaign covered roughly 45,000 compounds. About 65 (0.1%) were called active. Calls come from the whole dose curve; as a rule, active = well fitted activation curve with a large enough effect; inconclusive = small, poorly fitted or top-dose-only effect; inactive = no such curve, though single readings can be large or run the other way. The list shows a part of the results.

Biological target: Galactocerebrosidase (Homo sapiens) (UniProt P54803)
Sequence of UniProt P54803 (P54803 whole entry, looked up): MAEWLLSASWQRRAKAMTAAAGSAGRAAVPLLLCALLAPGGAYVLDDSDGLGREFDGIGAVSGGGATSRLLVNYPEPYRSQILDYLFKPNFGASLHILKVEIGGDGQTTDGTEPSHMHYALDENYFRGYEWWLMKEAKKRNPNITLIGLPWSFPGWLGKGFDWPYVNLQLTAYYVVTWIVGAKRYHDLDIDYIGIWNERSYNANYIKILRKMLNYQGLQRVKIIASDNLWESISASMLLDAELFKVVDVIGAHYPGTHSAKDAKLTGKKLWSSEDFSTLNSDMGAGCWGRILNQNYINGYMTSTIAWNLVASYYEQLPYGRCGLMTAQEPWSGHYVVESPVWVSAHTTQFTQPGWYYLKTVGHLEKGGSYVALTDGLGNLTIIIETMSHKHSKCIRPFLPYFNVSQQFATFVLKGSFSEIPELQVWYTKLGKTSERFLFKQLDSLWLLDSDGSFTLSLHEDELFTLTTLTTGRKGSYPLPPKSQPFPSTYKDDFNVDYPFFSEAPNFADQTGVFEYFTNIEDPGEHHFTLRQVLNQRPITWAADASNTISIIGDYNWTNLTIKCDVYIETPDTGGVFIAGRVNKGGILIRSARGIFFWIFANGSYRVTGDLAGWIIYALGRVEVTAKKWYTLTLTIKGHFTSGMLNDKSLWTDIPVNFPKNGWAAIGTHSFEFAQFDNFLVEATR
Assay: A Novel Cell-Based Assay to Identify Small Molecules for B -Galactocerebrosidase; note: nearly all actives have a fitted effect of over 65% in size; for activation: 0% is about no effect
Settings: 145M-Twi-hGALC-G270D cells, HMU-beta-Gal fluorescence, 48 h; series mostly up to 57.5 µM; activation: at the top concentration
Summary of the method: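 qHTS, 1536-well; 145M-Twi-hGALC-G270D cells (WT line also made) in DMEM/F12 + 10% FBS; compound incubation on live cells; HMU-β-gal 0.1 mM final, pH 5.2, NaTC; carbonate stop; fluorescence increase = enhanced residual activity.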
Potency is the fitted concentration of half-maximal effect.

activation, inactive:
NC(=O)n1c(O)c(C(=O)c2cccs2)c2cc(Cl)ccc21 -11.9%, CCOc1ccccc1NC(=O)c1nc(S(=O)(=O)Cc2cccc(C)c2)ncc1Cl 10.3%, CCOc1ccccc1NC(=O)CSc1c2c(nc3ccc(Cl)cc13)CCCC2 -9.81%, COc1ccc(S(=O)(=O)N(CC(=O)NCCSc2ccc(C)cc2)c2ccc(C)cc2)cc1 -8.15%, CCCN(c1ccccc1F)S(=O)(=O)c1ccc2c(c1)C(C)(C)C(=O)N2C -13.3%, CC(=O)N1CCC(N(Cc2ccc(C)o2)C(=O)Nc2ccccc2F)CC1 -10.5%, Cc1nc2c(c(C)c1CCC(=O)NCc1ccc(F)cc1)c(=O)n(C)c(=O)n2C -8.82%, CC1CCc2onc(C(=O)Nc3ccc(Cl)cc3)c2C1 (configuration not stated) -9.22%, COc1ccc(-c2noc(CNC(=O)c3cc(OC)c(OC)c(OC)c3)n2)cc1 -5.59%, Cc1[nH]c2ccc(C(=O)NCCCN3CCCCC3)cc2c1C 1.04%, COc1cccc(-c2nc(-c3ccc(Br)o3)no2)c1 -17.1%, O=C(NCc1ccccc1)c1cc(Sc2cccc(Cl)c2)nc2ccccc12 -12.1%, CCOc1c(Br)cc(C2C=C(C(=O)O)Nc3ncnn32)cc1OC (configuration not stated) -14%, CC(=O)N1c2ccccc2C(=O)C1N1CCN(c2ccc(Cl)cc2)CC1 (configuration not stated) -10.5%, CCOC(=O)c1cc(OC(=O)c2ccccc2F)n(-c2ccccc2)n1 -12.7%, CCOc1ccccc1NC(=O)Cn1nnc(C(=O)NCc2cccs2)c1N -16.8%, Cc1ccccc1Nc1nn2c(=O)c3ccc(C(=O)NCC(C)c4ccccc4)cc3nc2s1 (configuration not stated) -20.3%, CC1=C(c2ccc(C(C)C)cc2)S(=O)(=O)N=C1N1CCN(c2ccccc2F)CC1 -13.3%, CC(C)C[C@H](N)c1nnc(SCc2ccc(Cl)cc2Cl)o1 -10.2%, Cc1ccc(-c2nc(S(=O)(=O)c3ccc(F)cc3)c(N3CCN(c4ccccc4)CC3)o2)cc1 -11.8%, CCOC(=O)c1ccccc1NC(=O)CCOc1ccccc1 -9.17%, Cc1cccc(N2CCN(C(=O)NCc3noc4ccccc34)CC2)c1C -18.7%, COc1ccc(CNC(=O)c2cc3c(=O)[nH]c4ccccc4c3s2)cc1 -9.95%, COCCCNC(=O)C1CCCN(C(=O)c2cnn(-c3ccc(F)cc3)c2-n2cccc2)C1 (configuration not stated) 0.512%, Cc1ccn2c(Nc3ccccc3C)c(-c3ccccn3)nc2c1 -8.05%, CCN(Cc1ccccc1)C(=O)c1nc(-c2cccc(F)c2)n2c1CCCCC2 -3.19%, Cc1cc(C)c(CSc2nnc(C)n3c2cc2occc23)c(C)c1 -15.6%, COc1cc(NC(=O)c2noc3c2CSc2ccccc2-3)cc(OC)c1OC 1.91%, COc1cc(C(=O)Nc2nc3nc(-c4ccccc4)cc(=O)n3[nH]2)cc(OC)c1OC -7.16%, Cc1ccn2c(=O)cc(CSc3nnc(NC(=O)c4ccccc4Cl)s3)nc2c1 0.5%, O=C(NC1CCCCC1)c1cc(Nc2cccc(C(F)(F)F)c2)nc2ccccc12 -18.6%, Cc1ccc(SCc2nc(-c3ccc(C(=O)NCc4ccc(Cl)cc4)cc3)oc2C)cc1 -20.3%, CCn1cc(C(=O)N2CCN(c3cc(C)ccc3C)CC2)c(=O)c2cc(S(=O)(=O)N3CCOCC3)ccc21 7.89%, CCn1c(=O)n(CC)c2cc(N3CCCCC3)c(NC(=O)Nc3cc(C)cc(C)c3)cc21 -14%, COc1ccc(Cl)cc1NC(=O)Cn1c(=O)n(Cc2ccco2)c(=O)c2cccnc21 -26.6%, COc1ccccc1CNC(=O)C(=O)NCC(c1ccco1)S(=O)(=O)c1cccs1 (configuration not stated) -15%, CCOc1ccc(NC(=O)C(NS(=O)(=O)c2cccc3nsnc23)c2ccccc2)cc1 (configuration not stated) -15.9%, O=C(NC1CCCCC1)c1cc2c(Cl)nc3ccccc3c2s1 -3.47%, O=C(CCN1CCN(CCO)CC1)N1c2ccccc2Sc2ccc(C(F)(F)F)cc21 -13.5%, Cc1cccc(-c2noc(CN(C(=O)COc3ccc(Br)cc3C)C(C)C)n2)c1 -33%, OCCCc1nc2ccccc2n1CCCCOc1ccccc1 8.43%, COc1ccc(C(=O)NCCn2cc(SCC(=O)Nc3cccc(C)c3)c3ccccc32)cc1 -8.74%, Cc1cccc(-n2ncc3c(Nc4ccc(Oc5ccc(Cl)cc5)cc4)ncnc32)c1 -22.6%, COc1cc(-c2nc3nc[nH]n3c2Nc2ccc(C(C)C)cc2)ccc1O -30.1%, COCCc1nn2c(=O)cc(COC(=O)c3ccc(OC)c(OC)c3)nc2s1 -13.6%, Cc1ccc(C)n1-c1c(C(=O)NCCC(C)C)sc2ncccc12 -29.3%, CCOC(=O)C1CCN(C(=O)Cn2c(=O)cc(C)c3c(C)nn(C)c32)CC1 -8.39%, Cc1oc2ncn(CC(C)C)c(=O)c2c1C(=O)N1CCN(c2cccc(C(F)(F)F)c2)CC1 -9.81%, COc1cccc(NC(=O)CSC2=Nc3ccccc3C3=NC(CC(=O)NCCc4ccccc4)C(=O)N23)c1 (configuration not stated) -1.99%, Cc1ccc(CNC(=O)CCCCn2c(=O)c3ccccc3n(Cc3c(C)cc(C)cc3C)c2=O)cc1 -6.35%, COc1ccccc1N1CCN(C(=O)Cn2ncc3c([nH]c4ccccc43)c2=O)CC1 -8.13%, CCOC(=O)c1ccccc1NC(=O)Cn1c(=O)n(Cc2nc(-c3ccccc3)no2)c(=O)c2ccccc21 -10%, CCc1ccc(-n2c(SCc3ccccc3F)nc3[nH]ncc3c2=O)cc1 -15.2%, O=C(CCc1nc(CN2CCN(S(=O)(=O)c3ccc(F)cc3)CC2)no1)N1CCCCC1 -15.7%, CCc1ccc(C(=O)c2cn(CC(=O)NCCc3ccc(OC)c(OC)c3)c3nc(C)ccc3c2=O)cc1 3.41%, C[C@]12C[C@H](O)[C@H]3[C@@H](CCC4=CC(=O)CC[C@@]43C)[C@@H]1CC[C@@H]2C(=O)CO -12.9%, O=C(c1ccc2c(c1)N(Cc1ccccc1F)C(=O)c1ccccc1S2(=O)=O)N1CCCCC1 -13.7%, COc1cccc(NC(=O)CSC2=Nc3ccccc3N=C(c3ccc(F)cc3)C2)c1 1.13%, CCOCCCNC(=O)NC(C)c1c(-n2cccc2)sc2c1CCN(CC)C2 (configuration not stated) 12.2%, COc1ccc(OC)c(S(=O)(=O)N2CCC(c3ccncc3)CC2)c1 -10.5%, O=c1nc2sc3ccccc3n2c(=O)n1-c1ccc(Cl)c(Cl)c1 -15.2%

Potency, active:
CCOC(=O)c1c(N)n(-c2cccc(OC)c2)c2nc3ccccc3nc12 3.98 µM
